# Experimental data from PubChem BioAssay AID686978 (National Center for Advancing Translational Sciences (NCATS), 2013).
# The whole screen tested about 420,000 compounds, of which about 64,000 (15%) were called active. The shares of active, inactive and inconclusive entries below differ from those in the screen. The call rests on the fitted dose curve; in most records, active means well fitted inhibition curve with a large enough effect; inconclusive means small, poorly fitted or top-dose-only effect; inactive means flat fitted curve, though single readings scatter. No potency is given beside an inconclusive call; the fits are too rough.
# Assay: qHTS for Inhibitors of human tyrosyl-DNA phosphodiesterase 1 (TDP1): qHTS in cells in absence of CPT; further: nearly all actives have a fitted effect of over 55% in size
# Settings: DT40 Tdp1-/- hTDP1 cells, no CPT, ATP luminescence, 48 h; activity change, negative = growth inhibition: at 46.2 µM (top of the series)
# Outline: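 Compound effects on proliferation are scored in DT40 Tdp1-/-;hTDP1 cells in the absence of CPT. ATP levels (CellTiter-Glo luminescence) are recorded after a ≥48 hr, 37 °C incubation.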
# On the % scale 0 is the no-effect control and ±100 the full control effect; potency means the concentration at half of the fitted maximal effect; tags describe the fitted curve by direction and shape.
Compound,"activity change, negative = growth inhibition",Potency
CCOc1ccc(NS(=O)(=O)c2ccc3[nH]c(=O)oc3c2)cc1,inactive: -27.1%,
COc1cc(OC)nc(-n2ncc(OC)c(Br)c2=O)n1,,"inconclusive [inhibitor, single point]"
COc1ccccc1CNc1nc(-c2ccco2)nn1C(=O)c1ccccc1[N+](=O)[O-],,"inconclusive [inhibitor, partial curve, poor fit]"
CCCCn1c(CCNC(=O)c2ccc(F)cc2)nc2ccccc21,,"inconclusive [inhibitor, single point]"
COc1cccc(NC(=S)NNC(=O)c2ccccc2OC(F)F)c1,,"inconclusive [inhibitor, single point]"
c1cc(Nc2ncnc3sccc23)cc(-c2nnc3n2CCCCC3)c1,,"inconclusive [inhibitor, single point]"
O=c1c([N+](=O)[O-])c(NC2CCCCC2)c2ccccc2n1-c1ccccc1,,"inconclusive [inhibitor, single point]"
COc1ccc(Cl)cc1NC(=O)CSc1nc2sccc2c(=O)[nH]1,,"inconclusive [inhibitor, single point]"
O=C(/C=C/c1ccco1)Nc1cc(Cl)ccc1C(=O)O,,"inconclusive [inhibitor, single point]"
CCOC(=O)c1cc(-c2ccccc2)sc1NC(=O)c1cc(OC)c(OC)c(OC)c1,,active: 18.4 µM
COC(=O)N1CCC2(CC1)CN(C(c1ccccc1)c1ccccc1)C2,,"inconclusive [inhibitor, single point]"
C#Cc1ccc([C@H]2C=C(C(=O)NCc3nc4ccccc4[nH]3)O[C@@H](OCC)[C@@H]2CCCO)cc1,,"inconclusive [inhibitor, single point]"
O=C(N/C(=C\c1ccc(Br)cc1)C(=O)N1CCOCC1)c1ccc([N+](=O)[O-])cc1,inactive: -1.28%,
COc1ccccc1C1CC(c2ccc(C)cc2)Nc2ncnn21 (centres undefined),,active: 18.4 µM
CCCc1cc(C(=O)N2CCCC(N3CCN(c4ccccc4F)CC3)C2)n(C)n1 (centres undefined),,"inconclusive [inhibitor, single point]"
CCc1cc(-c2nc(N)ncc2-c2ccc(Br)cc2)c(O)cc1OC,,"inconclusive [inhibitor, single point]"
CCn1c(SCC(=O)Nc2ccc(C)cc2)nc(O)cc1=O,inactive: -0.154%,
Cc1ccc(NC(=O)C(C)Sc2nnc3n2CCCCC3)cc1S(=O)(=O)N1CCOCC1 (centres undefined),inactive: -25.8%,
CCN(C(=O)CSc1nnc(-c2ccc(Cl)cc2)o1)c1ccccc1,,active: 20.6 µM
NC(=O)CN(N=Nc1cccc([N+](=O)[O-])c1)c1cccc([N+](=O)[O-])c1,,"inconclusive [inhibitor, partial curve]"
CC(=O)N1CCN(S(=O)(=O)c2c(C)n(C)c(=O)n(C)c2=O)CC1,inactive: -3.45%,
COc1cc(NC(=O)c2cccc(Cl)c2)c(OC)cc1NC(=O)CN1CCCCC1,,"inconclusive [inhibitor, single point]"
CC1CN(C(=S)SCC(=O)c2ccccc2)CC(C)O1 (centres undefined),,"inconclusive [inhibitor, single point]"
Cc1ccc(S(=O)(=O)N[C@H](C(=O)OCn2nnc3ccccc3c2=O)C(C)C)cc1,,"inconclusive [inhibitor, single point]"
O=C(CN1CCCCCC1)Nc1ccc([N+](=O)[O-])cc1Cl,inconclusive: -31.1% [inhibitor],

Compound,"activity change, negative = growth inhibition",Potency
CC1CCCN(S(=O)(=O)c2cccc(C(=O)NCc3ccco3)c2)C1 (centres undefined),inconclusive: -31.7% [inhibitor],
COCCNC(=S)Nc1ccc(Cl)c(Cl)c1,inactive: -3.66%,
CCOC(=O)c1sc2nccc(OC)c2c1N=CNOC,inactive: -25.5%,
CCOC(=O)c1c(C)nc(C)c2c(=O)oc3ccccc3c12,,"inconclusive [inhibitor, single point]"
Cc1ccnc(NS(=O)(=O)c2ccc(NC(=O)c3cc(=O)c4ccc(C)c(C)c4o3)cc2)n1,,"inconclusive [inhibitor, single point]"
O=c1cc(CN2CCOCC2)c2ccccc2o1,inactive: -0.507%,
C=C1C=C(C(F)F)n2ncc(C(=O)NCc3ccc(OC)cc3)c2N1,,"inconclusive [inhibitor, partial curve]"
CC(=O)Nc1ccc(S(=O)(=O)N2CCN(c3cc(C)ccc3C)CC2)cc1,,"inconclusive [inhibitor, single point]"
[O-][n+]1cccc2c(Br)cc(Br)c(O)c21,,"inconclusive [inhibitor, single point]"
CCOC(=O)N1CCN(c2cc(C)c(C(C)=O)cc2F)CC1,,"inconclusive [inhibitor, single point]"
Cc1ccc2nc(N3CCN(C(=O)C4COc5ccccc5O4)CC3)sc2c1 (centres undefined),,"inconclusive [inhibitor, partial curve]"
CCc1nc(C)cn1S(=O)(=O)c1cc(Br)c(C)cc1OC,,"inconclusive [inhibitor, single point]"
CCC1(CC(C)C)SC(N)=NC1=O (centres undefined),inactive: -4.57%,
CCOc1ccc(NS(=O)(=O)c2ccc(C(=O)NNC(=O)c3ccccc3O)cc2)cc1,,"inconclusive [inhibitor, single point]"
CCCOc1ccc(F)cc1-c1cc(C(=O)Nc2ccccc2)[nH]n1,,"inconclusive [inhibitor, single point]"
CCCCSCc1nc2ccccn2c1Br,,"inconclusive [inhibitor, single point]"
O=C(Nc1nnc(CCN2CCCCC2)s1)c1ccc(Cl)cc1Cl,inactive: 5.01%,
COc1ccccc1CNC(=O)COc1cc2c(c3oc(=O)cc(C)c13)CCC(C)(C)O2,,active: 23.1 µM
CCOCCOC(=O)c1cccc2c1-c1ccccc1C2=O,inactive: 4.77%,
N#C/C(=C\c1ccc(-c2ccccc2[N+](=O)[O-])o1)C(=O)Nc1nc(-c2cccs2)cs1,,active: 29.1 µM
Cc1ccc(-c2nc(-c3ccccn3)no2)cc1Cl,,active: 11.6 µM
O=C(CN1CCCN(S(=O)(=O)c2ccc(F)cc2)CC1)Nc1ccccc1Br,,"inconclusive [inhibitor, single point]"
COC(=O)C1=C(C)NC(=O)NC1c1ccc(-c2ccccc2Cl)o1 (centres undefined),,active: 16.4 µM
Clc1ccc2[nH]cc(-c3nnnn3-c3ccc4ccccc4c3)c2c1,,"inconclusive [inhibitor, single point]"
O=C(CN1CCCCCC1)Nc1ccc([N+](=O)[O-])cc1Br,,"inconclusive [inhibitor, single point]"

Compound,"activity change, negative = growth inhibition",Potency
CCN1CCN(S(=O)(=O)c2ccc(Cl)c(C(=O)NCCc3ccccc3)c2)CC1,inactive: -22%,
Cc1nn(Cc2ccccc2)c(C)c1NC(=O)c1cc(C(C)C)on1,,"inconclusive [inhibitor, partial curve]"
c1ccc(CSc2nnc(-c3ccco3)n2Cc2ccco2)cc1,,active: 23.1 µM
O=C(Nc1ccccc1N1CCCCC1)c1cc(S(=O)(=O)N2CCOCC2)ccc1F,,"inconclusive [inhibitor, single point]"
CC(C)(C)C(c1nc2ccccc2[nH]1)n1c(-c2ccco2)nc2ccccc21 (centres undefined),inactive: 20%,
C/C(=N\NC(=O)c1ccc(NS(=O)(=O)c2cccs2)cc1)c1cccs1,inactive: -14.9%,
CN(C)CCNC(=O)Cc1ccc(NC(=O)N2CCCCc3ccccc32)cc1,inactive: -8.9%,
CCOC(=O)c1sc(NC(=O)c2nc(SCC)ncc2Cl)c(C(=O)OCC)c1C,inactive: -16.4%,
COc1ccc(NC(=O)CNc2cccc(C#N)c2)cc1Cl,inactive: -0.0717%,
CN1CCc2c(sc(NC(=O)Cc3ccc(F)cc3)c2C(N)=O)C1,inactive: 6.81%,
COc1ccc2cc(C(=O)N(C)Cc3ccccc3)[nH]c2c1,inactive: 7.91%,
COc1ccccc1N=Nc1c(C)[nH]n(-c2ccccc2)c1=O,inactive: 5.77%,
O=C(C[n+]1ccnc2ccccc21)c1ccc(Br)cc1,,"inconclusive [inhibitor, single point]"
CCOC(=O)c1cc(-c2ccc(C)cc2)n(CC(=O)Nc2cccc(C(C)=O)c2)c1C,,"inconclusive [inhibitor, partial curve]"
CCN(CC)CCNC(=O)C(=O)Nc1cc2c3c(c1)CCN3C(=O)CC2,inactive: 13.1%,
N#CCCNS(=O)(=O)c1ccc(C(=O)OCCCOC(=O)c2ccc(S(=O)(=O)NCCC#N)cc2)cc1,inactive: -0.234%,
O=C(Nc1cccnc1)c1cccc(S(=O)(=O)N2CCCC2)c1,,"inconclusive [inhibitor, single point]"
Cc1cccc(N2CCN(C(=O)c3ccccc3NC(=O)C3CC=CCC3C(=O)O)CC2)c1 (centres undefined),,active: 5.8 µM
O=C(c1ccncc1)N1CCN(S(=O)(=O)c2ccc3ccccc3c2)CC1,inactive: -17.8%,
O=C(Nc1ccccc1)c1ccc(NCc2ccco2)c(S(=O)(=O)N2CCOCC2)c1,,"inconclusive [inhibitor, single point]"
N/C(=N\S(=O)(=O)c1cc(C(F)(F)F)cc(C(F)(F)F)c1)c1ccccc1,,"inconclusive [inhibitor, single point]"
Cc1ccc(C(=O)c2cn(Cc3ccc(F)cc3)c3nc(C)ccc3c2=O)cc1,,active: 23.1 µM
COc1cccc(CNC(=O)c2cccnc2Sc2ccc(C)cc2C)c1,,"inconclusive [inhibitor, single point]"
Cc1ccc(NC(=O)C(OC(=O)c2ccc(NC(N)=O)cc2)c2ccccc2)cc1Cl (centres undefined),,"inconclusive [inhibitor, single point]"
